This is one part of the list. Sequences were assembled here from the parent chain. Inactive controls read about 0.05.
B1: TEV protease; numbered along this chain (parent)
chain: MGESLFKGPRDYNPISSSICHLTNESDGHTTSLYGIGFGPFIITNKHLFRRNNGTLVVQSLHGVFKVKDTTTLQQHLVDGRDMIIIRMPKDFPPFPQKLKFREPQREERICLVTTNFQTKSMSSMVSDTSCTFPSGDGIFWKHWIQTKDGQCGSPLVSTRDGFIVGIHSASNFTNTNNYFTSVPKNFMELLTNQEAQQWVSGWRLNADSVLWGGHKVFMVKPEEPFQPVKEATQL

Variants of: B1
Test: raw area under fraction-flipped curve 0-4 h after induction (AUC4h, not background-subtracted), DNA-recorder readout of cleavage of the substrate (dimensionless); higher = more cleavage of the substrate by the protease variant
Settings: temperature: 34 °C; time window: 0-4 h after rhamnose induction
Description: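 In vivo DNA recorder in E. coli TOP10(DE3) ΔrhaA at 34 °C. Each TEVp single-site mutant (parent TEVp 0) is paired with a single-site variant of the 7-mer TEVs (canonical ENLYFQ|S). The substrate sits between flexible linkers in a Bxb1-sfGFP-TEVs-SsrA fusion, so cleavage stabilises Bxb1 and speeds flipping of a recombination array, read by NGS. The value is the raw area under the fraction-flipped curve over 0-4 h after rhamnose induction (AUC4h), with ≥20 reads per time point. It is not background-subtracted; inactive controls average about 0.047.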
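Also: Bxb1 expression induced with 0.2% (w/v) L-rhamnose at OD600 near 0.5, cultures sampled hourly, flipped fraction per protease–substrate barcode pair counted by paired-end Illumina sequencing.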

| Variant | area with substrate ENLAFQS | area with substrate ENLDFQS | area with substrate ENLEFQS | area with substrate ENLFFQS | area with substrate ENLGFQS | area with substrate ENLHFQS | area with substrate ENLKFQS | area with substrate ENLNFQS | area with substrate ENLPFQS | area with substrate ENLQFQS | area with substrate ENLSFQS | area with substrate ENLWFQS | area with substrate ENLIFQS | area with substrate ENLLFQS | area with substrate ENLRFQS | area with substrate ENLCFQS | area with substrate ENLVFQS | area with substrate ENLMFQS | area with substrate ENLTFQS |
| --- | --- | --- | --- | --- | --- | --- | --- | --- | --- | --- | --- | --- | --- | --- | --- | --- | --- | --- | --- |
| V67D | 0.058 | 0.0595 | 0.0627 | 0.0533 | 0.0473 | 0.0475 | 0.0406 | 0.0531 | 0.0504 | 0.0501 | 0.0503 | 0.0469 |  |  |  |  |  |  |  |
| V67L | 0.0652 | 0.0509 |  | 0.0703 |  | 0.0638 | 0.0775 | 0.0636 | 0.0687 | 0.0754 |  |  | 0.0464 | 0.0817 | 0.0823 |  |  |  |  |
| V67T | 0.0591 | 0.0674 |  |  | 0.0641 | 0.0689 | 0.0308 |  | 0.0594 |  |  |  |  | 0.0754 | 0.0689 | 0.0661 | 0.0818 |  |  |
| D69L | 0.0831 | 0.0567 | 0.0617 | 0.0712 | 0.0629 | 0.065 | 0.0705 | 0.076 | 0.0582 |  | 0.0602 |  | 0.0762 | 0.0507 | 0.0616 | 0.0584 |  | 0.0664 |  |
| D69W | 0.0732 | 0.063 | 0.0742 | 0.0755 | 0.0788 | 0.0757 | 0.0637 |  |  | 0.0636 | 0.0583 | 0.0671 | 0.0712 |  |  | 0.0629 | 0.0728 |  |  |
| T70S | 0.0629 | 0.0751 | 0.0655 | 0.0786 | 0.0549 | 0.0624 | 0.074 | 0.0587 | 0.055 | 0.05 | 0.0868 | 0.0632 | 0.0583 | 0.0565 | 0.0826 | 0.0635 |  |  |  |
| T71C | 0.0586 | 0.0645 | 0.0733 | 0.0795 |  | 0.0676 | 0.0749 | 0.063 | 0.0569 | 0.0671 | 0.0559 | 0.0592 | 0.0892 |  |  | 0.0668 |  | 0.0748 | 0.0673 |
| T72D | 0.0651 | 0.073 | 0.0631 | 0.0862 | 0.0743 | 0.0673 | 0.0737 | 0.0656 | 0.072 |  | 0.049 | 0.047 |  |  | 0.0567 | 0.0347 | 0.066 | 0.071 | 0.0618 |
| L73P | 0.069 |  | 0.0626 | 0.0554 | 0.0589 | 0.0647 | 0.0537 | 0.059 | 0.0253 | 0.0441 | 0.0514 | 0.0445 |  | 0.0578 | 0.0623 | 0.0519 |  |  |  |
| L73Y | 0.0541 | 0.064 | 0.0492 | 0.0652 | 0.0712 | 0.0563 | 0.0619 | 0.0585 | 0.0534 |  | 0.0472 | 0.0619 | 0.0636 | 0.0576 | 0.0556 | 0.0575 |  | 0.0683 |  |
| Q74V | 0.0671 | 0.0568 | 0.0557 | 0.0654 |  | 0.0479 | 0.0672 | 0.0637 |  | 0.0613 | 0.0573 | 0.0616 |  | 0.0559 | 0.0514 | 0.0631 |  |  | 0.0514 |
| Q75C | 0.0579 | 0.0636 |  | 0.0699 |  | 0.0759 | 0.0803 | 0.0581 | 0.0616 |  | 0.0656 |  | 0.0947 |  |  |  |  | 0.0849 | 0.087 |
| L77N | 0.0459 | 0.06 | 0.0642 | 0.0644 | 0.0605 | 0.0653 | 0.0723 | 0.0637 | 0.0628 | 0.0623 | 0.0541 | 0.0571 | 0.0789 |  | 0.0575 | 0.0573 |  | 0.0649 | 0.0683 |
| L77S | 0.0692 | 0.0647 |  | 0.0749 |  | 0.0629 | 0.0754 | 0.0621 |  | 0.0585 | 0.0672 |  | 0.0613 | 0.051 | 0.0533 | 0.0598 |  |  |  |
| V78C | 0.0936 | 0.0364 | 0.0623 | 0.0993 | 0.0542 | 0.0838 | 0.0734 | 0.045 |  | 0.0821 | 0.0628 | 0.0712 | 0.0949 | 0.0688 | 0.0917 | 0.0756 | 0.0928 |  |  |
| V78F | 0.0688 | 0.0627 | 0.0504 |  |  |  |  | 0.0561 | 0.048 | 0.0596 | 0.0619 |  | 0.0647 | 0.0816 | 0.0606 |  |  |  | 0.0802 |
| V78S | 0.0549 | 0.0517 | 0.0602 | 0.0571 | 0.0414 | 0.0558 | 0.0625 | 0.056 | 0.0834 |  | 0.0563 | 0.0504 |  | 0.0634 | 0.0465 | 0.0505 | 0.0355 |  |  |
| I84W | 0.0571 | 0.0503 |  | 0.0478 |  | 0.0577 | 0.0544 | 0.0456 | 0.0522 | 0.0731 | 0.0545 | 0.0516 | 0.0627 | 0.0057 | 0.0504 | 0.061 | 0.0415 |  |  |
| I85P | 0.0308 | 0.0387 | 0.0589 | 0.0215 |  | 0.0233 |  | 0.0298 | 0.0413 | 0.0364 | 0.0154 | 0.0231 | 0.0415 | 0.0409 | 0.0394 |  |  |  | 0.0509 |
| D91A | 0.0708 | 0.0402 |  | 0.0608 |  | 0.0547 |  | 0.0852 | 0.0484 |  |  | 0.0794 |  | 0.0946 | 0.0915 |  | 0.0905 | 0.0606 |  |
| D91H | 0.065 | 0.0542 | 0.0617 | 0.0788 | 0.0481 | 0.0728 | 0.0712 | 0.0642 | 0.0631 | 0.0594 | 0.072 | 0.0851 |  | 0.0691 | 0.0765 | 0.0858 | 0.0985 |  | 0.086 |
| D91P | 0.041 | 0.0616 |  | 0.0396 |  |  | 0.0799 |  | 0.0686 | 0.0541 | 0.0442 |  | 0.0769 | 0.0828 | 0.0803 | 0.0783 | 0.0822 |  |  |
| F92H | 0.0672 | 0.0644 |  | 0.0899 |  |  | 0.0795 | 0.0667 | 0.0496 | 0.0777 |  |  |  | 0.0677 | 0.0898 |  |  |  |  |
| P94G | 0.0483 | 0.0652 |  | 0.0977 |  |  |  | 0.069 | 0.0711 | 0.0723 | 0.0409 | 0.071 | 0.0961 | 0.0554 |  |  | 0.109 |  |  |
| K98I | 0.0704 | 0.0711 | 0.0606 | 0.0978 | 0.0647 | 0.0716 | 0.0786 | 0.0621 | 0.0799 |  | 0.0591 | 0.0695 | 0.0719 |  | 0.0796 |  | 0.0638 | 0.0601 |  |
| K100E | 0.0556 | 0.0607 |  | 0.0656 | 0.0792 | 0.063 | 0.0767 | 0.0648 | 0.0567 |  | 0.0605 | 0.0692 | 0.0733 | 0.0719 | 0.088 |  |  | 0.061 |  |

From the supplement of paper PMC12217912
